Measured values: PubChem BioAssay AID504466 (National Center for Advancing Translational Sciences (NCATS), 2011)
Screen size: about 330,000 compounds; about 4,200 (1.3%) were called active. Inconclusive means that the source gave no clear call. Such entries were picked first, then a sample of the others. The call rests on the fitted dose curve; in most records, active means well fitted activation curve with a large enough effect; inconclusive means small, poorly fitted or top-dose-only effect; inactive means no such curve, though single readings can be large or run the other way. A potency beside an inconclusive call is a rough fit, not a confirmed value.

Assay: qHTS screen for small molecules that induce genotoxicity in human embryonic kidney (HEK293T) cells expressing luciferase-tagged ELG1; further: nearly all actives have a fitted effect of over 60% in size
Conditions: HEK293T ELG1-luciferase reporter, luminescence, 16 h; series mostly up to 46 µM
Outline: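 Genotoxicity was scored as increased ELG1-luciferase reporter signal, measured by ONE-Glo luminescence (30 min, room temperature). Compound or vehicle exposure of the HEK293T reporter cells lasted 16 hr at 37°C.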
Potency means the concentration at half of the fitted maximal effect; tags describe the fitted curve by direction and shape.

| SMILES | Potency |
| --- | --- |
| Cc1ccc(OCC(=O)Nc2ccc(-c3nnc(-c4ccco4)o3)cc2)cc1 | inconclusive: 5.8 µM [activator, partial curve, poor fit] |
| COc1ccc(/C(N)=N/OC(=O)c2ccco2)cc1 | active: 0.461 µM |
| COc1ccc(OCc2cc(C(=O)NCC3CCOCC3)no2)c(Cl)c1 | inconclusive: 20.6 µM [activator, single point] |
| CCOC(=O)c1oc2nc3c(cc2c1N)CCCC3 | inconclusive: 6.51 µM [activator, partial curve] |
| Cc1ccc(NC(=O)CCSc2ccccn2)cc1 | inconclusive: 14.6 µM [activator, partial curve] |
| CCOc1ccc2cc(C(=O)NCc3ccccc3)c(=N)oc2c1 | inconclusive: 23.1 µM [activator, partial curve, poor fit] |
| COC(=O)C1C(=O)c2c([nH]c(C(=O)OCC3CCCO3)c2C)CC1C (configuration not stated) | active: 9.2 µM |
| Cc1ccccc1-c1nc(CS(=O)CC(=O)NCc2ccccn2)c(C)o1 (configuration not stated) | inactive |
| CN1CCN(Cc2ccc(OCc3ccccc3)cc2)CC1 | inconclusive: 11.6 µM [activator, partial curve] |
| CC(=O)Oc1ccc(C(=O)Nc2ccc3c(c2)OCCO3)cc1 | inconclusive: 2.31 µM [activator, full curve] |
| COc1cccc(-c2nn(C)c3sc(C(=O)NCc4ccc(C)o4)cc23)c1 | inactive |
| Cc1ccc(C(C)C)c(OCc2ccc(C(=O)N/N=C/c3ccc(O)c(O)c3)cc2)c1 | inconclusive: 20.6 µM [activator, single point] |
| Fc1ccc(-c2nnc(-c3ccc(F)cc3)o2)cc1 | inconclusive: 4.11 µM [activator, partial curve, poor fit] |
| N/C(=N\OC(=O)CCc1ccccc1)c1ccc(Br)cc1 | inactive |
| COc1cc(/C=C2\CCOC2=O)cc(OC)c1OC | inconclusive: 29.1 µM [activator, partial curve, poor fit] |
| O=C1CCCC(O)=C1C=Nc1ccc(O)cc1 | inactive |
| CCCCOc1ccc(-c2[nH]ncc2C=O)cc1 | inconclusive: 16.4 µM [activator, partial curve, poor fit] |
| COc1ccc(-c2cccc(NC(=O)COc3ccc(Cl)cc3)c2)nn1 | inactive |
| CCOC(=O)C1(Cc2cccc(OC)c2)CCCN(C(=O)c2cc(CC(C)C)[nH]n2)C1 (configuration not stated) | inconclusive: 18.3 µM [activator, partial curve] |
| COc1ccc(N=NC2=C(O)CC(C)(C)CC2=O)cc1 | inconclusive: 6.51 µM [activator, partial curve] |
| CSc1nc(-c2ccc(F)cc2)cc(=O)[nH]1 | inactive |
| Cc1cccc(/N=C/c2c(O)[nH]c3ccccc23)n1 | inconclusive: 4.11 µM [activator, full curve] |
| CCN(CC)c1ccc(NC(=O)c2ccc3c(c2)OCO3)cc1 | inconclusive: 8.2 µM [activator, partial curve] |
| Cn1c(=O)n(C)c2cc(CN3C(=O)OC(C)(C)C3(C)O)ccc21 (configuration not stated) | inconclusive: 23.1 µM [activator, single point] |

| SMILES | Potency |
| --- | --- |
| Fc1cccc(/C=N/Nc2cc(N3CCOCC3)ncn2)c1 | inconclusive: 3.55 µM [activator, single point] |
| CC(C)OC(=O)CSc1nc(Cc2cccs2)nc2ccccc12 | inactive |
| C=CC[C@@H](CC(=O)NCCO)C(=O)N[C@@H](COC(=O)[C@@H](CC=C)Cc1ccc(F)cc1)Cc1c[nH]c2ccccc12 | inactive |
| CCc1nnnn1-c1ccc([N+](=O)[O-])cc1C | inactive |
| Cc1ccc(OCc2nc(-c3cccs3)no2)c([N+](=O)[O-])c1 | inconclusive: 1.83 µM [activator, full curve] |
| N/C(=N\OC(=O)C1CCCCC1)c1ccc(Br)cc1 | inconclusive: 3.16 µM [activator, full curve, poor fit] |
| CCN(CC)CCn1c2ccccc2c2nc3ccc([N+](=O)[O-])cc3cc21 | active: 23.1 µM |
| COc1ccc(OCc2cc(C(=O)NC3CCOC(C)(C)C3)no2)c2ccccc12 (configuration not stated) | inconclusive: 8.2 µM [activator, partial curve] |
| O=[N+]([O-])c1cc(/C=N/N2CCCCC2)ccc1Cl | inconclusive: 13 µM [activator, partial curve, poor fit] |
| CC1CCN(c2ncnc3c2cnn3-c2ccccc2)CC1 | active: 1.46 µM |
| CCCCCCCCOC(=O)c1c(CSC(=N)N)n(C)c2cc(Br)c(OC(C)=O)cc12 | inconclusive: 18.3 µM [activator, partial curve, poor fit] |
| Cc1cccc(OCC(=O)NC2CCCC2)c1 | inconclusive: 23.1 µM [activator, partial curve, poor fit] |
| CCC(C)c1ccccc1N1CC(C(=O)N(C)CC(=O)Nc2cccc(F)c2)CC1=O (configuration not stated) | inactive |
| Cc1ccccc1-c1nnc(SCC(=O)N2CCCC2)o1 | inconclusive: 14.6 µM [activator, partial curve] |
| Nc1nc(Nc2ccc(Cl)cc2)nc(NCc2ccco2)c1[N+](=O)[O-] | inconclusive: 18.3 µM [activator, partial curve, poor fit] |
| O=C(CSc1nnnn1C1CCCC1)N1CCOCC1 | inconclusive: 18.3 µM [activator, partial curve, poor fit] |
| COc1ccccc1NC(=O)C1CCN(C(=O)C2CC(=O)N(c3ccc(C)cc3)C2)CC1 (configuration not stated) | inactive |
| COC(=O)c1ccccc1NC(=O)c1ccc2c(c1)OCCCO2 | inconclusive: 14.6 µM [activator, partial curve, poor fit] |
| Cn1c(=O)n(C)c2cc([N+](=O)[O-])c(N3CCN(S(=O)(=O)c4ccc(C(C)(C)C)cc4)CC3)cc21 | inconclusive: 16.4 µM [activator, partial curve] |
| COc1ccccc1/C=C/C(=O)OCc1nc2ccccc2c(=O)[nH]1 | inactive |
| C/C(=N\NC(=O)c1nnn(-c2nonc2N)c1-c1ccccc1)c1ccco1 | inactive |
| O=C(CSc1nnc(-c2cccnc2)n1CCN1CCCCC1)Nc1cccc(Cl)c1 | inactive |
| CC(=O)N(/N=C1\Sc2ccccc2C1=O)c1ccccc1C | inconclusive: 20.6 µM [activator, partial curve, poor fit] |
| Cc1c(Oc2ccc(C(F)(F)F)cc2[N+](=O)[O-])ccc2c3c(c(=O)oc12)CCC3 | inactive |

| SMILES | Potency |
| --- | --- |
| O=C(CN1CC(c2ccccc2)CC1=O)N/N=C/c1cc(Br)ccc1O (configuration not stated) | inconclusive: 23.1 µM [activator, partial curve, poor fit] |
| Cc1csc2ncc(C(=O)Nc3cccc(C(F)(F)F)c3)c(=O)n12 | inconclusive: 5.8 µM [activator, full curve, poor fit] |
| Cc1cc(=O)oc2c(N)c(O)ccc12 | inconclusive: 29.1 µM [activator, single point] |
| O=C(Nc1nc(-c2ccc(S(=O)(=O)N3CCOCC3)cc2)cs1)c1ccccc1 | inactive |
| Fc1ccc2cc(-c3cccnc3)ncc2c1 | inconclusive: 10.3 µM [activator, partial curve, poor fit] |
| CC(C)(C)NC(=O)CSc1nc(-c2ccc(F)cc2)cs1 | inconclusive: 3.26 µM [activator, partial curve] |
| CCOC(=O)C1CCN(C(=O)CCCOc2ccccc2)CC1 | inconclusive: 10.3 µM [activator, partial curve] |
| Cc1ccc(-n2c(C)nn(CCOc3ccccc3)c2=O)cc1 | inconclusive: 16.4 µM [activator, partial curve] |
| O=c1cc(CSc2ccccn2)c2ccccc2[nH]1 | inconclusive: 18.4 µM [activator, partial curve, poor fit] |
| CC(C)[C@H]1C(=O)Nc2ccccc2N1C(=O)N[C@@H](Cc1ccccc1)C(=O)N[C@@H](Cc1ccccc1)C(=O)O | inactive |
| Cc1ccc2c(c1)sc(=NC(=O)c1cccs1)n2C | active: 0.517 µM |
| O=C(Nc1cnn(Cc2ccc(F)cc2)c1)c1noc2c1CCCC2 | inconclusive: 25.9 µM [activator, partial curve, poor fit] |
| CCN(CC)c1ccc(/C=N/Nc2nc(C)cc(C)n2)c(O)c1 | inconclusive: 29.1 µM [activator, single point] |
| CCc1ccc(NS(=O)(=O)c2c(C(=O)N3CCCCCC3)c(C)n(C)c2C)cc1 | inactive |
| Cc1occc1C(=O)N/N=C/c1sc(N2CCOCC2)nc1-c1ccccc1 | inactive |
| CC1(C)CC2CC(C)(CN2C(=O)c2cc(-c3ccccc3)on2)C1 (configuration not stated) | inactive |
| NC(=O)c1ccsc1NC(=O)CSc1ccccc1F | active: 10 µM |
| COc1ccc(/C=C(\C#N)C(=O)NCc2ccccc2)cc1 | inactive |
| CNC(=O)Nc1ccc2snnc2c1 | inactive |
| O=[N+]([O-])c1ccccc1-c1ccc(C(=S)N2CCCCC2)o1 | inconclusive: 14.6 µM [activator, partial curve, poor fit] |
| Cc1ccc(/C=N/Nc2cccc3cccnc23)c(O)c1 | inconclusive: 3.66 µM [activator, full curve, poor fit] |
| COc1ccc2c(c1)CCc1c(C(=O)NC3CCCCC3)noc1-2 | inconclusive: 2.59 µM [activator, full curve, poor fit] |
| CC1CCCN(C(=O)CNC(=O)c2ccco2)C1 (configuration not stated) | inconclusive: 14.6 µM [activator, partial curve] |
| Cn1cc(CNC(=O)c2ccc3nc(Cc4ccccc4F)oc3c2)cn1 | inconclusive: 16.4 µM [activator, partial curve, poor fit] |
